Data taken from the RNAGym collection of RNA variant scans (doi:10.1101/gad.245936.114).
Variants at the floor of the assay are shown more often than the library holds them.

B1: tRNA (parent)
chain: CUCUCGGUAGCCAAGUUGGUUUAAGGCGCAAGACUUUAAUUUAUCACUACGAAAUCUUGAGAUCGGGCGUUCGACUCGCCCCCGGGAGAUUUUUUCCUCGAGCAA

Variants of: B1
Assay: nonsense suppression (GFP-seq) (ratio to wild type); higher = more function; SUP4oc tRNA, yeast GFP reporter sort-seq
Summary of the method: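 Yeast were grown in raffinose/galactose medium with 80 mg/L adenine, each strain bearing a genome-integrated ochre-suppressor tRNA variant from a ~3% random-mutation library, a galactose-driven GFP ochre reporter, and RFP. After sorting into GFP/RFP bins, every bin was sequenced on an Illumina platform at phred ≥30. The GFPSEQ value, a measure of nonsense suppression, is the weighted bin median GFP/RFP relative to the unmutated parent tRNA, using each variant's estimated cell share per bin as the weight. Only variants with ≥100 reads and ≥30 cells were included.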

Row | Variant | nonsense suppression
1 | CUCUCGGUGGCCAAGUUGGUUUAAGGCGCAAGACUUUAAUUUAUCACUACGAAAUCUUGAGACCGGGCGUUCGACUCGCCCCCGGGAGAUUUUUUCCUCGAGCAA | 0.772
2 | CUCUCGGUGGCCAAGUUGGUUUAAGGCGCAAGACUUUAAUUUAUCACUACGAAAUCUUGAGAACGGGCGUUCGACUCGCCCCCGGGAGAUUUUUUCCUCGAGCAA | 0.836
3 | CUCUCGGUUGCCAAGUUGGUUUUAGGCGCAAGACUUUAAUUUAUCACUACGAAAUCUUGAGCUCGGUCGUUCGACUCGCCCCCGGGAGAUUUUUUCCUCGAGCAA | ≤ 0.026
4 | CUCUCGGUGGCCAAGUUGGUGUAAGGCGCAACACUUUAAUUUAUCACUACGAAAUCUUGAGAUCGGGCGUUCGACUCGCCCCCGGGAGAUUUUUUCCUCGAGCAA | ≤ 0.026
5 | CUCUCGGUUGCCUAGUUGGUUUAAGGCGCAAGACUUUAAUUUAUCACUACGAAAUCUUGAGAUCGGGCGUUCGACUCGCCCCCGGGAGAUUUUUUCCUCGAGCAA | 0.819
6 | CUCUCGGUGGCCAAGUUGGUUUAAGGCGCAAGACAUUAAUUUAUCACUACGAAAUCUUGUGAUCGAGCGUUCGACUCGCCCCUGGGAGAUUUUUUCCUCGAGCAA | ≤ 0.026
7 | CUCUCGGUGGCCAAGUUGGUUUAAGGCGCAAGACUUUAAUUUAUCACUACGAAAUCUUGAGAUCGGGCGUUCGACCCGCCCCCGCGAGAUUUUUUCCUCGAGCAA | ≤ 0.026
8 | CUCUCGGUUGCCGAGUUGGUUUAAGGCGCAAGACUUUAAUUUAUCACUACGAAAUCGUGAGAUCGGGCGUUCGACUCGCCCCCGGGAGAUUUUUUCCUCGAGCAA | ≤ 0.026
9 | CUCUCGGUUGCCCAGUUGGUUUAAGGCGCAAGACUUUAAUUUAUCACUACGAAAUCCUGAGAUCGGGGGUUCGACUCGCCCCCGGGUGAUUUUUUCCUCGAGCAA | ≤ 0.026
10 | CUCUCGGUUGCCCAGUUGGUUUAAGGCGCAAGACUUUAAUUUAUCACUACGAAAUCCUGAGAUCGGGGGUUCGACUCGCCCCCGGGGGAUUUUUUCCUCGAGCAA | ≤ 0.026
11 | CUCUCGGUGGCCAAGUUGGUUUAAGGCGCAAGACUUUAAUUUAUCACUACGAAAUCUUGAGAUCGGGCGUUCGACACGCCCCCGGGAGAUUUUUUCCUCGAGCAA | 0.103
12 | CUCUCGGUUGCCAAGUUGGUUUACGGCGCAAGACUUUAAUUUAUCACUACGAAAUCUUGAGAUCGCGCGUUCGACUCGCCCCUGAGAGAUUUUUUCCUCGAGCAA | ≤ 0.026
13 | CUCUCGGUGGCCAAGUUGGUUUAAGGCGCAAGACUUUAAUUUAUCACUACGAAAUCUUGAGAUCGGGCGUCCGACUCGCCCCCGGGAGAUUUUUUCCUCGAGCAA | 0.0266
14 | CUCUCGGUUGCCCAGUUGUUUUAAGGCGCAAGACUUUAAUUUAUCACUACGAAAUCUUGAGAUCGGGCGUUCGACUCGCCCCCGAGAGAUUUUUUCCUCGAGCAA | ≤ 0.026
15 | CUCUCGGUGGCCAAGUUGGUUUAAGGCGCAAGACGUUAAUUUAUCACUACGAAAUCUUGAGACCGGGCGUUCGACUCGCCCCCAGGAGAUUUUUUCCUCGAGCAA | ≤ 0.026
16 | CUCUCGGUUGCCACGUUGGUUUAAGGCGCAAGACUUUAAUUUAUCACUACGAAAUCUUGAGAACGGGCGUUCGACUCUCCCCCAGGAGAUUUUUUCCUCGAGCAA | ≤ 0.026
17 | CUCUCGGUGGCCAAGUUGGUAUAAGGCGCAAGACUUUAAUUUAUCACUACGAAACCUUGAGAUCGGGCCUUCGACUGUCCCCCGGGAGAUUUUUUCCUCGAGCAA | ≤ 0.026
18 | CUCUCGGUUGCCCAGUUGGUUUAAGGCGCAAGACUUUAAUUUAUCACUACGAAAUCUUCAGAUCGGGCGUUCGACUCGCCCCCGGGAGAUUUUUUCCUCGAGCAA | ≤ 0.026
19 | CUCUCGGUUGCCAAGUUGGUUUAAGGCGCGAGACUUUAAUUUAUCACUACGAAAUGUUGAGAUCAGGCGUUCGACUCGCCCCCGGGAGAUUUUUUCCUCGAGCAA | ≤ 0.026
20 | CUCUCGGUGGCCAAGUCGGUUCAAGGCGCAAGACUUUAAUUUAUCACUACGAAAUCUUGAGAUCGGGCGUUCGACUCGCCCCCGGGAGAUUUUUUCCUCGAGCAA | 0.133
21 | CUCUCGGUGGCCAAGAUGUUUUAAGGCGCAAGACUUUAAUUUAUCACUACGAAAUCUUGAGAUCGGGCGUUCGACUCGCCCCCGGGAGUUUUUUUCCUCGAGCAA | ≤ 0.026
22 | CUCUCGGUGGCCAAGUUGGUGUAAGGCGCGAGACUUUAAUUUAUCACUACGAAAUCUUGAGAUCGGGCGUUCGACUCGCCCACGGGAGAUUUUUUCCUCGAGCAA | ≤ 0.026
23 | CUCUCGGUGGCCAAGUUGGUUUAAGGCGCAAGACUUUAAUUUAUCACUACGAAAUCUUGAGAUCGGGCGUACGACUCGCACCAGGGAGUUUUUUUCCUCGAGCAA | ≤ 0.026
24 | CUCUCGGUUGCCAAGUUGGUUUGAGGCGCAAGACUUUAAUUUAUCACUACGAAACCUUGAGUUCGAGCGUUCGACUCGCCCCCGGGAGAUUUUUUCCUCGAGCAA | ≤ 0.026
25 | CUCUCGGUGGCCAAGUUGGUUUAAGGCGCAAGACUUUAAUUUAUCACUACGAAAUCUUGAGAUCGGGCGCUCGACUCGCUCCCGGGAGAUUUUUUCCUCGAGCAA | ≤ 0.026
26 | CUCUCGGUUGCCAGGUUGGUUUAAGGCGCAAGAAUUUAAUUUAUCACUACGAAGUCUUGAGAUCGGGCGUUCGACUCGCCCCCCGGAGAUUUUUUCCUCGAGCAA | ≤ 0.026
27 | CUCUCGGUGGCCAAGUUGGUUUAAGGCGCAAGACUUUAAUUUAUCACUACGAAAUCUCGAAAUCGAGCGUUCGACUCGCCUCCGGGAGAUUUUUUCCUCGAGCAA | ≤ 0.026

Row | Variant | nonsense suppression
28 | CUCUCGGUUGCCUAGUUGGUUUAAGGCGCAAGACUUUAAUUUAUCACUACGAAGUCUUGAGAUCGGGCGUUCGACUCGCCCCCGGGAGAUUUUUUCCUCGAGCAA | ≤ 0.026
29 | CUCUCGGUGGCCAAGAUGUUUUAAGGCGCAAGACUUUAAUUUAUCACUACGAAAUCUUGAGAUCGGGCGUUCGACUCGCCCCCGGCAGAUUUUUUCCUCGAGCAA | ≤ 0.026
30 | CUCUCGGUUGCCAAGUUGGUUUAAGGCGCGAGACUUUAAUUUAUCACUACGAAAUCUUGAGAUCGGGCGUUCGACUCGCCCCCGGGAGAUUUUUUCCUCGAGCAA | 0.0995
31 | CUCUCGGUUGCCAAGUUGGUUUCCGGCGCAAGACUUUAAUUUAUCACUACGAAAUCUUGAGAUCGGGCGUUCGACUCGCCCCCGGGAGAUUUUUUCCUCGAGCAA | ≤ 0.026
32 | CUCUCGGUUGCCAAGUUGGUUUAAGGCGCCAGACUUUAAUUUAUCACUACGAAAUCUUGAGAUCGUGCGUUCGACUCGCCCCCGGGAGAUUUUUUCCUCGAGCAA | ≤ 0.026
33 | CUCUCGGUUGCCAAGUUGGUUUAUGGCGCAAGAUUUUAAUUUAUCACUACGAAAUCUUGAGAUCGGGCGUUCGACUCGCCCCCGGGAGAUUUUUUCCUCGAGCAA | ≤ 0.026
34 | CUCUCGGUUGCCUAGUUGGUUUAGGGCGCAAGACUUUAAUUUAUCACUACGAAAUCUUGAGAUCGGGCGUUCGACUCGCCCCCGGGAGAUUUUUUCCUCGAGCAA | 0.212
35 | CUCUCGGUUGCCAAGUUGGUUUAAGGCGCAAGACUUUAAUUUAUCACUACGAAAUCUUGAGAUCGGGCGUUCGACUCGCCCCCGGGAGAUUUUUUCCUCGAGCAA | 0.802
36 | CUCUCGGUGGCCAAGUUGGUUAAAGGCGCAAGACUUUAAUUUAUCACUACGAAAUCUUGAGAUCGGGCGUUCGACUCGCCCCCGGGAGAUUUUUUCCUCGAGCAA | 0.212
37 | CUCUCGGUUGCCACGUUGGUUUAAGGCGCAAGACUUUAAUUUAUCACUACGAAAGCUUGAGAACGGGCGUUCGACUCGCCCCCGGGAGAUUUUUUCCUCGAGCAA | ≤ 0.026
38 | CUCUCGGUGGCCAAGUUGGUUUAAGGCGCAAGACCUUAAUUUAUCACUACGAAAUCUUGAGAUCGGGCGUUCGACUCGCCCCCGGGAGAUUUUUUCCUCGAGCAA | ≤ 0.026
39 | CUCUCGGUGGCCAAGUUGGUUUAAGGCGCAAGACAUUAAUUUAUCACUACGAAAUCUUGAGAUCGGGCGUUCGACUCGCCCCCGGGAGAUUUUUUCCUCGAGCAA | ≤ 0.026
40 | CUCUCGGUGGCCAAGUUGGUUUAAGGCGCAAGACUUUAAUUUAUCACUACGAAAUCCUGAGAUCGGGCGUUCGACUCGCCCCCGGGAGAUUUUUUCCUCGAGCAA | ≤ 0.026
41 | CUCUCGGUGGCCAAGUUGGUUAAAGGCGCAAGACUUUAAUUUAUCACUACGAAAUCUUGAGAUCGGGAGUUCGACUCGCCCCCGGGAGAUUUUUUCCUCGAGCAA | ≤ 0.026
42 | CUCUCGGUUGCCACCUUGGUUUAAGGCGCAAGACUUUAAUUUAUCACUACGAACUCUUGAGAUCGGGCGUUCGACUCGCCCUCGGGAGAUUUUUUCCUCGAGCAA | ≤ 0.026
43 | CUCUCGGUGGCCAAGUUGGCUUGAGGCGCAAGACUUUAAUUUAUCACUACGAAAUCUUGAGAUCGAGCGUUCGACUCGCCCCCGGGAGAUUUUUUCCUCGAGCAA | ≤ 0.026
44 | CUCUCGGUGGCCAAGUUGGUUUAAGGCGCAAGACUUUAAUUUAUCACUACGAAAUCUUGAGAUCGGGCGAUCGACUCGCCACCGGGAGAUUUUUUCCUCGAGCAA | ≤ 0.026
45 | CUCUCGGUGGCCAAGUUGGUUUAAGGCGCAAGACUUUAAUUUAUCACUACGAAAUCUAGAAAUCGGGCGUUCUACUCGCCCCCGGGAGAUUUUUUCCUCGAGCAA | ≤ 0.026
46 | CUCUCGGUGGCCAAGCUUGUUUAAGGCGCAAGACUUUAAUUUAUCACUACGAAAUCUUGAGAUCGGGCGUUCGACUCGCCCCCGGGAGAUUUUUUCCUCGAGCAA | ≤ 0.026
47 | CUCUCGGUGGCCAAGUUGGUUUAAGGCGCAAGACUUUAAUUUAUCACUACGAAAUCUUGAGAUCGGGCGCUCGACUCGCCCCCGGGAGAUUUUUUCCUCGAGCAA | ≤ 0.026
48 | CUCUCGGUGGCCAAGUUGGUUUAAGGCGCAAGACAUUAAUUUAUCACUACGAAAUCUUGUGAUCGAGCGUUCGACUCGCCCCUGUGAGAUUUUUUCCUCGAGCAA | ≤ 0.026
49 | CUCUCGGUGGCCAAGUUGGUUUAAGGCGCAAGACUUUAAUUUAUCACUACGAAAUCUCGAGAUCGCGCGUUGGACUCGCCCCCGGGAGAUUUUUUCCUCGAGCAA | ≤ 0.026
50 | CUCUCGGUGGCCAAGUUGGUUCAAGGCGCAAGACUUUAAUUUAUCACUACGAAAUCUUGAGAUCGAGCGUUCGACUCGCCCCCGGAAGAUUUUUUCCUCGAGCAA | ≤ 0.026
51 | CUCUCGGUUGCCAUGUUGGUUUAAGGCGCAAGACUUUAAUUUAUCACUACGAAAUCUUGAGAUCGGGCGUUCGACUCGCCCUCGGGAGAUUUUUUCCUCGAGCAA | ≤ 0.026
52 | CUCUCGGUGGCCAAGUUGGGUUAAGUAGCAAGACUUUAAUUUAUCACUACGAAAUCUUGAGAACGGGCGUUCGACCCGCCCCCGGGAGAUUUUUUCCUCGAGCAA | ≤ 0.026
53 | CUCUCGGUUGCCAAGUUGGUUUACGGCGCAAGACUUUAAUUUAUCACUACGAAAUCUUGAGAUCGGGCGUUCGACUCGCCCCAGGGAGAUUUUUUCCUCGAGCAA | ≤ 0.026
54 | CUCUCGGUGGCCAAGGUGGUUUAAGGCGCAAGACUUUAAUUUAUCACUACGAAAUCUUGAGAUCGGGCGUUCGACUCGCCCCCGGGAGAUUUUUUCCUCGAGCAA | 0.551
